Some of the results follow. These are noisy estimates, calculated here from bound and input reads.
Target: T1, Pho4 (S. cerevisiae) (UniProt P07270)
T1 sequence: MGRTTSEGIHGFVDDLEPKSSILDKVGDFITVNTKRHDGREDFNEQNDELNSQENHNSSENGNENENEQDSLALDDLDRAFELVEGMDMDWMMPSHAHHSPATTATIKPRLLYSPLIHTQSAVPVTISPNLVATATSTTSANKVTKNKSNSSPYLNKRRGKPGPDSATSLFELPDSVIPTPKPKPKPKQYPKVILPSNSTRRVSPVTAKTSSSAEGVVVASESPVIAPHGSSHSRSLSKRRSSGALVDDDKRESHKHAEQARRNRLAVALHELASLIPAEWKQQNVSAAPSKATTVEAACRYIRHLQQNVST
Assay: relative binding free energy (BET-seq); higher = weaker binding
Conditions: reference: library average

Row | Sequence | relative binding free energy
1 | GGTCTCACGTGAATTT | 0.38 kcal/mol
2 | GAGGGCACGTGCGTGA | -0.25 kcal/mol
3 | GGATGCACGTGATGTT | 0.12 kcal/mol
4 | TGTGTCACGTGAGGGT | 0.27 kcal/mol
5 | GAAGACACGTGGAGTT | 0.13 kcal/mol
6 | TTGGTCACGTGCTGGA | 0.07 kcal/mol
7 | GTAGCCACGTGGGGTT | -0.24 kcal/mol
8 | ATTATCACGTGTATGT | 0.09 kcal/mol
9 | TTATACACGTGTTTCA | 0.05 kcal/mol
10 | AATTTCACGTGGTTTC | 0.36 kcal/mol
11 | GGTCGCACGTGATTGG | 0.08 kcal/mol
12 | TTGATCACGTGGCGGG | 0.09 kcal/mol
13 | AGATACACGTGTTTTA | 0.11 kcal/mol
14 | AGCTACACGTGTGGTG | 0.07 kcal/mol
15 | TTTGGCACGTGTGTTT | 0 kcal/mol
16 | ATGTTCACGTGACAGT | 0.32 kcal/mol
17 | CAATTCACGTGTGCGT | 0.4 kcal/mol
18 | TTTAGCACGTGTGAAT | 0.1 kcal/mol
19 | CTTCACACGTGTGGGG | 0.03 kcal/mol
20 | GCGTGCACGTGAGAGT | 0.21 kcal/mol
21 | TGAAACACGTGATGTG | 0.13 kcal/mol

Row | Sequence | relative binding free energy
22 | GGGTGCACGTGGACGA | -0.01 kcal/mol
23 | TGGTTCACGTGGACCT | 0.29 kcal/mol
24 | GGTGACACGTGAGAGG | 0.22 kcal/mol
25 | GGATACACGTGGCGGG | -0.12 kcal/mol
26 | ACTTTCACGTGGTTAG | 0.14 kcal/mol
27 | CGTAGCACGTGGTGCC | 0.02 kcal/mol
28 | GGATTCACGTGGTGAA | 0.22 kcal/mol
29 | GGTCGCACGTGAGTAG | 0.18 kcal/mol
30 | GTATACACGTGTCGTG | -0.03 kcal/mol
31 | AGATTCACGTGGAATG | 0.32 kcal/mol
32 | TATGTCACGTGGTTGT | 0.06 kcal/mol
33 | GGGGGCACGTGGACTT | 0.05 kcal/mol
34 | GGAGACACGTGTAAGT | 0.21 kcal/mol
35 | TGGCGCACGTGACTGG | -0.06 kcal/mol
36 | TCATTCACGTGTGTAA | 0.21 kcal/mol
37 | AGCGTCACGTGCATGG | 0.06 kcal/mol
38 | TCTTACACGTGTGTTT | 0.06 kcal/mol
39 | GATTACACGTGGTTAG | -0.02 kcal/mol
40 | TATTACACGTGACGGG | 0.18 kcal/mol
41 | TATTGCACGTGTATCA | 0.08 kcal/mol
42 | TACTGCACGTGTTTAG | 0.01 kcal/mol

Row | Sequence | relative binding free energy
43 | TTGTGCACGTGTTCTA | -0.09 kcal/mol
44 | ATCGTCACGTGACGGT | 0.09 kcal/mol
45 | TAGTTCACGTGGATGC | 0.38 kcal/mol
46 | TTATCCACGTGATAGT | 0.2 kcal/mol
47 | GTATGCACGTGAGTGT | 0.27 kcal/mol
48 | GAGAGCACGTGGTGAG | -0.14 kcal/mol
49 | TATGTCACGTGTGTGA | 0.05 kcal/mol
50 | AATTGCACGTGGTTAG | -0.06 kcal/mol
51 | AATGTCACGTGGGATT | -0.04 kcal/mol
52 | ATTGACACGTGTGTGG | -0.09 kcal/mol
53 | TAAGTCACGTGTGTGG | 0.04 kcal/mol
54 | AGTTGCACGTGCTAGG | -0.09 kcal/mol
55 | AAGGTCACGTGGGCGT | -0.02 kcal/mol
56 | TTGTGCACGTGCGTTT | -0.02 kcal/mol
57 | GTCCTCACGTGTGGGG | 0.3 kcal/mol
58 | AGGGACACGTGAGGGT | 0.14 kcal/mol
59 | TTAGGCACGTGGGGAT | -0.16 kcal/mol
60 | TTTAGCACGTGGCATT | -0.24 kcal/mol
61 | ATCGGCACGTGGGTAA | -0.16 kcal/mol
62 | GAGTTCACGTGTAGTG | 0.29 kcal/mol
63 | GTGGGCACGTGCGAAG | -0.04 kcal/mol
